# The full ranking holds about 33,000 sequences; the median of “E-score (-0.5 to 0.5)” is about -0.053, and the highest 2% start at about 0.37. Some of the results follow.
# Target: Hap1 (UniProt P0CE41)
# Assay: PBM E-score (8-mer binding enrichment) (E-score (-0.5 to 0.5)); higher = stronger / more preferred TF binding; most listed sequences are background and not binding sites
# Settings: protein concentration: 200 nM; construct: GST-DNA-binding domain
# Outline: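 Universal all-10-mer Agilent arrays, fresh or stripped once, were converted to double-stranded form by primer extension. GST-tagged yeast transcription factors from PURExpress in vitro transcription/translation, full-length or DNA-binding domain only, were applied at about 100-200 nM and detected with fluorescent anti-GST. After masliner normalisation, the Universal PBM Analysis Suite scored each ungapped eight-base word together with its reverse complement by E-score.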
# Chain of UniProt P0CE41 (P0CE41 whole entry): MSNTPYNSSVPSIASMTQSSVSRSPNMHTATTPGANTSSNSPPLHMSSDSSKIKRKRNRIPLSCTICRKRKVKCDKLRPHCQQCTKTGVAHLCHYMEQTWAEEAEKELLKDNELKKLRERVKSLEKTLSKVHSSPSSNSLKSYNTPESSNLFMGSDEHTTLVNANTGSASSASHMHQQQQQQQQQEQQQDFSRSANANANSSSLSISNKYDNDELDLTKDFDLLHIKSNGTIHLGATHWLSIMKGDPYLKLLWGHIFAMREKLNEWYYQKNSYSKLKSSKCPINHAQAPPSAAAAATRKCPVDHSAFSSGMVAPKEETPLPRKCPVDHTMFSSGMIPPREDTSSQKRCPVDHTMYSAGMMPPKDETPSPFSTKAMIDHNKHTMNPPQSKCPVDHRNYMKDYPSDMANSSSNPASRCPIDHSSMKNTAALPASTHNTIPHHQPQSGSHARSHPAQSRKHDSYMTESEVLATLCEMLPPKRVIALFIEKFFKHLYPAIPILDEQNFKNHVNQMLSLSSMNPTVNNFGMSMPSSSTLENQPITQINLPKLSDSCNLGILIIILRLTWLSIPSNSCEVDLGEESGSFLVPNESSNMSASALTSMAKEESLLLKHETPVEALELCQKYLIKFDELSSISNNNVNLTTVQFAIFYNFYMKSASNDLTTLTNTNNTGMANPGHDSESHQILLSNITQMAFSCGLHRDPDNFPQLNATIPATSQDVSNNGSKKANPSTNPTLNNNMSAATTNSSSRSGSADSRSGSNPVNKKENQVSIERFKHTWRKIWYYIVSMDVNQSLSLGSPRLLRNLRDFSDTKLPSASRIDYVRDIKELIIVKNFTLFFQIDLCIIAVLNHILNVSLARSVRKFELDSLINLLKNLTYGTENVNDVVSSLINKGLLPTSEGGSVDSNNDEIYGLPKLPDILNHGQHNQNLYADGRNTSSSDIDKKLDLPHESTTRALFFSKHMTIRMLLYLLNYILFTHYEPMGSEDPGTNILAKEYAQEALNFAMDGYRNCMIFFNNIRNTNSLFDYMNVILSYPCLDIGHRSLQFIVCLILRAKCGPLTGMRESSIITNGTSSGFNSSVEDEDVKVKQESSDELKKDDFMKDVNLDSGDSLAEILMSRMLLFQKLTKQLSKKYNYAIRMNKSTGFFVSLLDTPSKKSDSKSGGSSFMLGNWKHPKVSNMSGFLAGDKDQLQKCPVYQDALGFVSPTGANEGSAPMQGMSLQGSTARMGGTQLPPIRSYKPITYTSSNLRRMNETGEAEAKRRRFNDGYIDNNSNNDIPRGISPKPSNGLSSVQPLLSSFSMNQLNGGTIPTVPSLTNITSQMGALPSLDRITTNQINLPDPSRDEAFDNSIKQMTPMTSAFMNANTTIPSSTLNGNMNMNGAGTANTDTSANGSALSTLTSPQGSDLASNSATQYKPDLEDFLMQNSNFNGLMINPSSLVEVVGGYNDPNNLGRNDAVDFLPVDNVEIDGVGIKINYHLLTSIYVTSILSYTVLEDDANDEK
row,Sequence,PBM E-score
1,TGTTTTAA,-0.106
2,CGAATGGA,0.0263
3,GATTAAAA,0.0144
4,CACATGGC,-0.149
5,AGAAGACC,0.0374
6,AGGTTCAT,-0.0331
7,CGTAACTC,-0.0267
8,CATACCAC,-0.0616
9,CCGCGTGC,0.0757
10,TAGTGTGA,-0.346
11,AGTCGCGA,0.0781
12,AGCTATCC,0.145
13,ACAAATGG,-0.241
14,CTGTACTA,0.00852
15,CTACACGC,-0.305
16,AAGTTACA,-0.157
17,CCTGCCGA,0.156
18,TCCATAGA,-0.0299
19,GTACACTA,-0.23
20,CTATGGCC,0.0369
21,CCCGAGGC,0.29
22,ATGCCAAG,-0.149
23,CCAACTCG,-0.0521
24,ACGGGTTA,0.0135
25,CCCTGGAA,-0.11

row,Sequence,PBM E-score
1,AGCACGGA,0.193
2,ACACACCC,0.117
3,TGGATAAA,-0.0137
4,ACGTATCC,-0.0362
5,CGTTGTCC,0.198
6,CCCGGGAC,0.368
7,TCACAAAA,0.122
8,CTTGTGTC,-0.149
9,CCTTAAAC,-0.0115
10,CGGACCGA,0.423
11,ACCTCGAG,0.0583
12,CACCGCGG,0.252
13,ACCTCACA,-0.123
14,CATTATTA,-0.0137
15,GCAAGGTA,-0.289
16,CAGCCCCA,-0.108
17,CCTATGAA,-0.146
18,GGATACAA,0.0871
19,TGGGGACA,-0.185
20,AGACATTA,-0.00366
21,GAGTCTCA,-0.179
22,CAAAGGCG,-0.135
23,ATTGTGAA,-0.0788
24,ACTTACTA,-0.118
25,CTTTCTAA,-0.155

row,Sequence,PBM E-score
1,ATACCCCA,0.144
2,AGGATCAA,-0.0251
3,ATAATCTG,-0.205
4,AAATCCCT,-0.166
5,ACCCCACC,0.223
6,CAAGATCA,-0.211
7,CGACTCAG,-0.012
8,CGAGAGAG,0.0776
9,AACATTCA,-0.108
10,GGCGGCCC,0.0993
11,CCATTAGG,-0.215
12,GTCGTTGA,-0.185
13,CGAACGAG,-0.0115
14,AATACGAC,-0.118
15,AGCGGCTC,0.0902
16,AATCTGGA,-0.0478
17,GGCCATAA,0.159
18,CCGGATAC,0.323
19,AATACATC,0.172
20,AGTTCTGA,-0.244
21,CGCGTATC,0.0758
22,AGGTAATC,-0.00721
23,ATTCCGGG,0.374
24,AAAGGGCA,-0.0877
25,ATAAGACA,-0.0811

row,Sequence,PBM E-score
1,TGGGAACA,-0.103
2,CAACTTCA,-0.167
3,CTGCTTAC,-0.13
4,AGCCCACG,-0.131
5,ACAACAGC,-0.124
6,ACGCAAAG,-0.0974
7,AAAGTCCT,0.157
8,GTGTCTAA,-0.299
9,ACGACTTG,-0.182
10,CATGAAGA,-0.192
11,AAGGGAGT,-0.234
12,GTCCTATA,-0.0558
13,AGACGAAG,-0.142
14,AACGTGGA,-0.211
15,AAATGCAA,-0.279
16,CGACGATA,0.14
17,CTGTTCTC,0.0705
18,CGCGAACC,0.202
19,ATTCCTGC,-0.0313
20,CGACAAAG,0.0926
21,AAGTTTTC,0.00231
22,GAGTCTCC,0.187
23,CCCTCGGC,0.268
24,CAAATCTA,-0.217
25,GCAAACAC,-0.0606

row,Sequence,PBM E-score
1,CAGAACGC,-0.00429
2,GAACCCGA,0.23
3,GCACTACC,-0.0847
4,GAATGAAC,-0.00381
5,AGGTAACA,-0.238
6,GCAATCCC,0.256
7,AAGCAGCG,-0.0753
8,ACAGTCGA,-0.261
9,AAAAGAAA,-0.0223
10,GGGGTGAC,-0.129
11,CTGAGTTC,-0.0173
12,CTCACTCC,-0.0331
13,GCACGCGA,0.0534
14,CTAAGTCC,0.265
15,CCGCAAAC,0.17
16,TACCCAAA,-0.178
17,CTATAGGC,-0.0955
18,CTTGAAAG,-0.156
19,CCACCGAG,0.14
20,GCGCGAGC,0.0922
21,ACACTATG,-0.127
22,ACTTGTAT,-0.181
23,GGGCAACC,-0.0855
24,AGCTCAAG,-0.298
25,ACGAGGTA,0.0113

row,Sequence,PBM E-score
1,AAATATTA,0.0284
2,CCGTCGAA,0.0717
3,ATCAATCC,0.00642
4,CCGATTGC,0.29
5,CATATTTC,0.00746
6,CAACAATG,-0.0888
7,CGTTCCCA,-0.2
8,CCCCATAG,-0.0346
9,GTGGACAC,-0.102
10,AGCATCAG,-0.0904
11,ATAGTCCA,-0.114
12,GACCGGCA,0.232
13,GTGATGAA,-0.184
14,ACCTACAC,-0.376
15,TCCCAAGA,-0.143
16,GTAATGCA,-0.106
17,CGAACGGA,0.342
18,AATAATGT,-0.0855
19,CACATGAC,-0.292
20,AAAAGCTG,-0.191
21,ACAAACAT,-0.0916
22,CCAGAGTC,-0.202
23,GTAACGCA,0.0607
24,ACACGGGT,-0.137
25,ATTCAGTA,-0.0456

row,Sequence,PBM E-score
1,ATGTCTTA,-0.306
2,CCAGCTAA,-0.215
3,GAGTACAA,0.0916
4,ATAGTGAA,-0.165
5,CCCGAGCA,0.198
6,CGGACAAC,0.353
7,CCAAGTGC,-0.0742
8,GACCCGGA,0.353
9,GACATGGC,-0.0735
10,CATACCCG,0.204
11,GGAATCAA,0.103
12,ACACGCCC,0.122
13,GGCCGAGA,0.401
14,TGCTGGAA,0.107
15,ACCTTGCC,-0.132
16,ACGCCAAC,-0.0987
17,GGCGTTGA,-0.0688
18,CAACACAG,-0.266
19,GTTACTGA,0.122
20,AGAACACG,-0.0087
21,AACGCGTA,-0.00426
22,CGATTTAG,0.204
23,GGCACTAC,0.0847
24,AAGTCGGT,0.155
25,GCGCTAAA,0.124

row,Sequence,PBM E-score
1,GTTCGTTA,-0.0084
2,CGGTTGAG,0.18
3,GAGTCGCC,-0.0011
4,ACTATTCC,0.211
5,ATGTGCGG,0.126
6,GGTACTGA,-0.0588
7,AAATATTC,-0.156
8,GGGTAACC,0.0115
9,CGAGTAAA,0.0895
10,AAATAGAA,-0.053
11,GTCTGGGA,-0.222
12,CCCTTGGC,-0.162
13,CGCGTTTC,0.0153
14,AGCGGTGC,-0.0766
15,GATATTAC,0.226
16,CATGCAGA,-0.194
17,AATCGTAT,-0.118
18,AGCGGCAC,-0.0478
19,CTAGGCTA,-0.167
20,AGGTGTAG,-0.28
21,AGTAACCA,-0.0693
22,AACCACTC,-0.141
23,CGAGCGAC,-0.0236
24,AAGCATCT,-0.171
25,CCCTATCA,-0.103

row,Sequence,PBM E-score
1,ACAATTGT,-0.208
2,ACCTATGA,-0.162
3,ACCGGAAG,0.333
4,AGAGCTAT,-0.273
5,CATCCCTA,0.0059
6,CCTACTGC,-0.147
7,GTCTACAC,-0.199
8,AACTAACA,-0.0716
9,AATATCCG,0.414
10,GTCAGTAA,-0.103
11,CAGTATTA,-0.0769
12,ACGAGAAT,-0.117
13,AATTGACC,0.0984
14,CGCACTAG,-0.0312
15,CTATCCCC,0.24
16,CGCTCTAG,-0.0716
17,CAGGACGA,-0.0578
18,AGGTTCCC,-0.126
19,AAACTGCA,-0.152

# — the supplement of paper PMC3334620
